{"source": "PubChem BioAssay AID2094", "about": "(Broad Institute, 2009)", "note": "Screen size: about 300,000 compounds; about 1,200 (0.4%) were called active. Inconclusive means that the source gave no clear call. Such entries were picked first, then a sample of the others. No stated cut-off is given here; in the data, active means activity change below about -75% (passing the limit was not always enough); inconclusive means no clear call, values can overlap the other calls."}
{"test": "Vibrio harveyi AI-2 quorum sensing modulators, primary screen, JMH597 strain, luminescence/OD600 ratio (AID 2094);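 further: luminescence divided by OD600 gain over 9 h not by final OD600 alone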", "conditions": "Vibrio harveyi JMH597 AI-2 luminescence/OD600 ratio, 9 h; at 7.5 µM; hits give low values; 0 = neutral-control median; strain lacks LuxN and CqsS sensors"}
{"smiles": "CCOC(=O)C1C(CC)NC(=S)NC1(C)O", "note": "(stereo not given)", "activity change": "inconclusive: -72.9%"}
{"smiles": "O=C(CN1C(=O)c2ccccc2C1=O)Nc1ccc2c(c1)OCO2", "activity change": "inconclusive: -59.7%"}
{"smiles": "C/C(=N\\NC(=S)NCc1ccccc1)c1ccc2ccccc2c1OC(F)F", "activity change": "inconclusive: -71.6%"}
{"smiles": "COc1ccccc1OCCC(=O)O", "activity change": "inactive: 7.8%"}
{"smiles": "O=C(c1ccc([N+](=O)[O-])s1)N1CCN(c2cccc(Cl)c2)CC1", "activity change": "inconclusive: -20.2%"}
{"smiles": "NS(=O)(=O)c1cc(C(=O)OCC(=O)Nc2ccc(Cl)cc2[N+](=O)[O-])ccc1Cl", "activity change": "inactive: 27%"}
{"smiles": "C=CCc1ccc(OCCCOc2ccc(C(=O)O)cc2)c(OC)c1", "activity change": "inconclusive: -224%"}
{"smiles": "O=C(NCc1cccnc1)c1ccc([N+](=O)[O-])o1", "activity change": "active: -109%"}
{"smiles": "CCOC(=O)C1CCCN(S(=O)(=O)c2ccc(Br)s2)C1", "note": "(stereo not given)", "activity change": "inconclusive: -60.3%"}
{"smiles": "COC(=O)c1cc(OC)c(OC)cc1NC(=O)c1ccc(Br)o1", "activity change": "inconclusive: -42.6%"}
{"smiles": "Cc1c(C(=O)NN2CCN(C)CC2)cccc1[N+](=O)[O-]", "activity change": "inactive: 10.6%"}
{"smiles": "N#Cc1nc(-c2ccccc2F)oc1NCc1ccccc1", "activity change": "active: -90.1%"}
{"smiles": "Cc1cccc(CSc2ccc(-c3cccs3)nn2)c1", "activity change": "inconclusive: -79.5%"}
{"smiles": "CC1(c2ccccc2)NC(=O)N(CC(=O)Nc2ccccc2C(=O)N2CCCCC2)C1=O", "note": "(stereo not given)", "activity change": "inactive: 12.6%"}
{"smiles": "Fc1ccc(-c2nnn(Cc3nc4ccccc4s3)n2)cc1", "activity change": "active: -90.3%"}
{"smiles": "CCSc1nnc(NC(=O)c2ccccn2)s1", "activity change": "active: -121%"}
{"smiles": "CC12CCC(=O)N1C(C(=O)Nc1ccc(S(=O)(=O)N3CCCCC3)cc1)CS2", "note": "(stereo not given)", "activity change": "inactive: -32.6%"}
{"smiles": "COc1cc(C(=O)NCc2ccc(-c3nc4ccccc4o3)cc2)cc(OC)c1OC", "activity change": "inactive: 19.5%"}
{"smiles": "COC(=O)c1ccc(Nc2nnc(-c3ccc(C)c(S(=O)(=O)NCC4CCCO4)c3)c3ccccc23)cc1", "note": "(stereo not given)", "activity change": "inactive: 24.1%"}
{"smiles": "O=C(NCc1ccc(F)cc1)Nc1cccc(Cl)c1", "activity change": "active: -93.8%"}
